# Results as given in the supplement of paper PMC8728848.
# Some of the results follow.
# B1: Epa1-NP (Candida glabrata), Q6VBJ0 (protein)
# chain: MILNPALFLNKCVCIYTTLILLLLTNGGYATSSNDISLASKDPTTFPLGCSPDITTPKKGLSMELYSYDFRKKGSYPCWDAAYLDPNYPRTGYKSHRLLAKVDGVTGNINFYYHATKGCTPQLGHLPASYNYPKPLTMTNFTMLLYGYFRPKVTGFHTFTISADDLLFVNFGAGNAFDCCRRDSSADHFGNYQAYAIWGSKTAKDELTVHLDAGVYYPIRLFYNNREYDGALSFTFKTESNENTVSDFSEYFFSLDDTEEGCPGLISYDSSCASVKTSKIIGIDYHTETPNENLVPITKTIYHLGIPCTGTTTTPLCGSGFYDPLANKCVTINTSSTSSVTKTTSHTTSKEVSFHSSISSQKTLIPKSIPSPYGPIKSQSIPTEMETSSEISSSEYAFSDVISTPSHSPYTKKHSSLNSSSYTSTVIHSLTSYSISQGIFSTSLSEQNITSKSSTDKFSTATSMSNNITQSSIIISQFSTNNENYTTTSMHTSSDKISTETLNNSISTTTSILFSNSSTILKNNTTIISSDKDTHYHPVNPTIVCSTNKTEIICASITQPSISNSNNHWSSSVLKFNSTTVRSTLPSSAGSNETSINVPFSSSTESNTSTSSTSTSNSKMVRSTLPSSAGSNETSISVPFSSSTESNTSTSSTSTSNSKMVRSTLPSSAGSNETSINVPFSSSTESNTSTSSTSTSNSKTVRSTPFSSAGIIMTSLSQRNNKSASSYASSNSKCYNTADSCRKVHSTPSYLLTSSYTSEGVDYDCSLVSTKLKINDTNCVNNKHTTKSCLKTSVTTTIPTLEIKTARKSSSNTIGLHSYPTSSPNKSISSAPIIGYISSFKTIKTASPSYQTSDLTTITTITSLNNPGSTAVENTHESNDKSRKTSSNDISSKHSVIKETKDAVESSNKSHQTNTLKCSSIIIASSSHNSYESLGGTTLTLTLSKVYSPQNNDTLPFLEISEVNPSRTVLPESSKMMQYLTSTEERNKTARNTIATNIVSISTFHFEGEGNAIRMGYTQLLLMLIGIIVMNIGT
# What was measured:
# Test in all cases: glycan array binding signal (z-score within array); higher = stronger binding
# Conditions in all cases: glycan notation: IUPAC condensed, linker removed
# [1] = target: Fuc(a1-3)[GalNAc(b1-4)]Gal(b1-4)GlcNAc
# In short: (§1)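 The Consortium for Functional Glycomics database supplied 3228 glycan arrays, of which those lacking an available protein sequence were dropped. The binding signal, a within-array Z-score, was averaged across arrays of the same protein sequence and across linkers. Negative scores can be read as non-binding.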
# [2] = target: Fuc(a1-3)[GalNAc(b1-4)]GlcNAc
# In short: as §1
# [3] = target: Fuc(a1-3)[GalNAc(b1-4)]GlcNAc6S
# In short: as §1
# [4] = target: Fuc(a1-4)GlcNAc
# In short: as §1
# [5] = target: Fuc(b1-3)GlcNAc
# In short: as §1
# [6] = target: Gal(a1-2)Gal
# In short: as §1
# [7] = target: Gal(a1-3)Gal
# In short: as §1
# [8] = target: Gal(a1-3)Gal(b1-3)Glc
# In short: as §1
# [9] = target: Gal(a1-3)Gal(b1-3)GlcNAc
# In short: as §1
# [10] = target: Gal(a1-3)Gal(b1-3)GlcNAc(b1-2)Man
# In short: as §1
# [11] = target: Gal(a1-3)Gal(b1-3)GlcNAc(b1-2)Man(a1-3)[Gal(a1-3)Gal(b1-3)GlcNAc(b1-2)Man(a1-6)]Man(b1-4)GlcNAc(b1-4)GlcNAc
# In short: as §1
# [12] = target: Gal(a1-3)Gal(b1-3)GlcNAc(b1-3)GalNAc
# In short: as §1
# [13] = target: Gal(a1-3)Gal(b1-3)GlcNAc(b1-6)GalNAc
# In short: as §1
# [14] = target: Gal(a1-3)Gal(b1-3)[Fuc(a1-4)]GlcNAc(b1-2)Man(a1-3)[Gal(a1-3)Gal(b1-3)[Fuc(a1-4)]GlcNAc(b1-2)Man(a1-6)]Man(b1-4)GlcNAc(b1-4)GlcNAc
# In short: as §1
# [15] = target: Gal(a1-3)Gal(b1-4)Glc
# In short: as §1
# [16] = target: Gal(a1-3)Gal(b1-4)GlcNAc
# In short: as §1
# [17] = target: Gal(a1-3)Gal(b1-4)GlcNAc(b1-2)Man
# In short: as §1
# [18] = target: Gal(a1-3)Gal(b1-4)GlcNAc(b1-2)Man(a1-3)[Gal(a1-3)Gal(b1-4)GlcNAc(b1-2)Man(a1-6)]Man(b1-4)GlcNAc(b1-4)GlcNAc
# In short: as §1
# [19] = target: Gal(a1-3)Gal(b1-4)GlcNAc(b1-3)GalNAc
# In short: as §1
# [20] = target: Gal(a1-3)Gal(b1-4)GlcNAc(b1-6)GalNAc
# In short: as §1
# [21] = target: Gal(a1-3)Gal(b1-4)[Fuc(a1-3)]GalNAc
# In short: as §1
# [22] = target: Gal(a1-3)Gal(b1-4)[Fuc(a1-3)]GlcNAc
# In short: as §1
# [23] = target: Gal(a1-3)Gal(b1-4)[Fuc(a1-3)]GlcNAc(b1-2)Man(a1-3)[Gal(a1-3)Gal(b1-4)[Fuc(a1-3)]GlcNAc(b1-2)Man(a1-6)]Man(b1-4)GlcNAc(b1-4)GlcNAc
# In short: as §1
# [24] = target: Gal(a1-3)GalNAc
# In short: as §1
# [25] = target: Gal(a1-3)GlcNAc
# In short: as §1
# [26] = target: Gal(a1-3)[Gal(a1-4)]Gal(b1-4)GlcNAc
# In short: as §1
# [27] = target: Gal(a1-4)Gal(b1-3)GlcNAc(b1-2)Man(a1-3)[Gal(a1-4)Gal(b1-3)GlcNAc(b1-2)Man(a1-6)]Man(b1-4)GlcNAc(b1-4)GlcNAc
# In short: as §1
# [28] = target: Gal(a1-4)Gal(b1-4)Gal
# In short: as §1
# [29] = target: Gal(a1-4)Gal(b1-4)GalNAc
# In short: as §1
# [30] = target: Gal(a1-4)Gal(b1-4)Glc
# In short: as §1
binder,measurement,setting,value
B1,glycan array binding signal (z-score),[1],-0.555
same,glycan array binding signal (z-score),[2],-0.265
same,glycan array binding signal (z-score),[3],-0.286
same,glycan array binding signal (z-score),[4],-0.341
same,glycan array binding signal (z-score),[5],-0.324
same,glycan array binding signal (z-score),[6],-0.225
same,glycan array binding signal (z-score),[7],-0.03
same,glycan array binding signal (z-score),[8],-0.55
same,glycan array binding signal (z-score),[9],-0.141
same,glycan array binding signal (z-score),[10],-0.283
same,glycan array binding signal (z-score),[11],-0.164
same,glycan array binding signal (z-score),[12],-0.246
same,glycan array binding signal (z-score),[13],-0.284
same,glycan array binding signal (z-score),[14],-0.276
same,glycan array binding signal (z-score),[15],-0.258
same,glycan array binding signal (z-score),[16],0.167
same,glycan array binding signal (z-score),[17],-0.291
same,glycan array binding signal (z-score),[18],-0.281
same,glycan array binding signal (z-score),[19],-0.267
same,glycan array binding signal (z-score),[20],-0.281
same,glycan array binding signal (z-score),[21],0.265
same,glycan array binding signal (z-score),[22],-0.042
same,glycan array binding signal (z-score),[23],-0.174
same,glycan array binding signal (z-score),[24],-0.17
same,glycan array binding signal (z-score),[25],0.208
same,glycan array binding signal (z-score),[26],-0.168
same,glycan array binding signal (z-score),[27],-0.165
same,glycan array binding signal (z-score),[28],0.374
same,glycan array binding signal (z-score),[29],1.29
same,glycan array binding signal (z-score),[30],-0.242
